Results published in article PMC4336329 (PLoS ONE, 2015).
Among all 310,000 compounds or so, about 14,000 (4.5%) showed an effect of 50% or more. The effect is printed as a negative number. Some of the results follow.

Each molecule was assayed against human ether-à-go-go-related gene (hERG) potassium channel (human, UniProt Q12809) (assay: primary screen, population patch clamp on CHO cells stably expressing hERG).
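Also: peak tail current of the secondary pulse compared with the same well before compound.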

human ether-à-go-go-related gene (hERG) potassium channel, sequence (Q12809 whole entry, looked up): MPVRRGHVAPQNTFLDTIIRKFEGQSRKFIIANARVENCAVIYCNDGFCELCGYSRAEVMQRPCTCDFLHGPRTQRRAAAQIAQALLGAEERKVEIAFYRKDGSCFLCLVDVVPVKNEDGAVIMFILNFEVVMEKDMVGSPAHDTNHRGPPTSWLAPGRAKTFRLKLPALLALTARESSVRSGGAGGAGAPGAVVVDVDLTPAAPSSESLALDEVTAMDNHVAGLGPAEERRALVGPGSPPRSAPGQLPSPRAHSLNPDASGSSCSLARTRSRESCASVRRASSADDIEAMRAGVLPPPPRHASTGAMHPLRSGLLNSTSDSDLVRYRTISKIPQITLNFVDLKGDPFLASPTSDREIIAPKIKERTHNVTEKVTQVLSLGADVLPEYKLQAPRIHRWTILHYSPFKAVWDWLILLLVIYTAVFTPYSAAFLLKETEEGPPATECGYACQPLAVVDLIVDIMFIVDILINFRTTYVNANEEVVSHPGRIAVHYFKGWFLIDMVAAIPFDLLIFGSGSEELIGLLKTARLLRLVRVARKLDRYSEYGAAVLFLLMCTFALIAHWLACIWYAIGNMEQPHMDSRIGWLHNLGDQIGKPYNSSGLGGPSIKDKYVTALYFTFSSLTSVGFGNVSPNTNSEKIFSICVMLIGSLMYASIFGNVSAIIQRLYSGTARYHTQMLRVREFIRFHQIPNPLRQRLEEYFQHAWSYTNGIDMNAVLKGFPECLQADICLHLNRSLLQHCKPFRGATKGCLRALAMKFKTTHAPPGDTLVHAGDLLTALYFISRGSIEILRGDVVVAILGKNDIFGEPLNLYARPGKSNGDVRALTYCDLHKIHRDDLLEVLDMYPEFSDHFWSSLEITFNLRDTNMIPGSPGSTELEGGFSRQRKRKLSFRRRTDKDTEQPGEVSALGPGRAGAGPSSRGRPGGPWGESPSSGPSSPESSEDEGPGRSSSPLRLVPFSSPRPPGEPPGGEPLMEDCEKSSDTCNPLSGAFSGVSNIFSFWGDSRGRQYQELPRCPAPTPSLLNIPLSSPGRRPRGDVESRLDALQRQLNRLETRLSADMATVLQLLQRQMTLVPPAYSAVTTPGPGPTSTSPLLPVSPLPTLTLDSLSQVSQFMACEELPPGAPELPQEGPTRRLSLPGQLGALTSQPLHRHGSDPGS

Row | Structure (SMILES) | hERG current change (%, negative = inhibition) at 10uM [%]
1 | Cc1ccc(NC(=O)[C@H](C)NC(=O)C2CCN(C(=O)[C@@H](N)CC(C)C)CC2)cc1.Cl | 7.29
2 | COC(=O)[C@H](CCSC)NC(=O)Cn1ccc(NC(=O)OCc2ccccc2)nc1=O | 14.6
3 | COc1ccccc1-c1c(C)nn2c(N)c(-c3ccccc3)cnc12 | -26.8
4 | CCC(CC)C(=O)c1c[nH]c(C(=O)NCc2cccnc2)c1 | 18.6
5 | CC(C)=C1C2CCC1C1C(=O)N(NC(=O)c3ccco3)C(=O)C21 (centres unmarked) | -4.72
6 | CCOc1ccc(NC(=O)Nc2nnc(CC)s2)cc1 | 11.1
7 | OC1CNCc2cc3c(cc21)OCCO3 (centres unmarked) | -8.55
8 | COc1ccc(S(=O)(=O)Nc2ccc3c(c2)OCO3)cc1Cl | -17.7
9 | O=C(Cc1ccc(Br)cc1)N1CCc2ccccc2C1 | 18.9
10 | COc1cc(/C=N/NC(N)=O)c(Br)cc1OCC(=O)Nc1ccccc1C | -11.3
11 | Cc1ccc(C2NC(=O)NC(O)(C(F)(F)F)C2C(=O)c2ccccc2)o1 (centres unmarked) | -5.24
12 | Cn1nc(-c2ccccc2)c2ncc(C(F)(F)F)cc21 | -5.15
13 | CC(=O)/C(=N/Nc1ccc([N+](=O)[O-])cc1)N1CCCc2ccccc21 | 7.77
14 | CC(=O)NC(C)(CC(=O)c1ccccc1)c1ccccc1 (centres unmarked) | 3.77
15 | Cn1c(=O)oc2cc(S(=O)(=O)NCCC(=O)NCCc3ccccc3)ccc21 | 1.29
16 | CCOC(=O)c1sc2c(c1C)c(=O)c(C(=O)OCC)cn2CC | 12.5
17 | Cc1ccc(OCC(=O)Nc2ccc(F)cc2)cc1C | 13.1
18 | COc1ccc(N=C2C(=O)Nc3ccccc32)cc1 | -6.61
19 | NC(=O)c1c(NC(=S)Nc2ccccc2)sc2c1CCCC2 | 28.9
20 | NS(=O)(=O)c1ccc(NC(=O)/C=C/c2ccc3c(c2)OCO3)cc1 | 8.18
21 | CCOC(=O)c1cc2cc(OCc3ccccc3)ccc2nc1C | 9.26
22 | CCOc1ccc(N(CC(=O)N/N=C/c2cccnc2)S(C)(=O)=O)cc1 | -11.7
23 | CC1=C(C#N)C(=O)N(C)C(C)(C)C1 | 4.83
24 | CCCNC(=O)c1cc(-c2ccc3c(c2)OCO3)on1 | 18
25 | COc1ccc(Cc2nc3ccc(C(=O)NCc4cc(C)no4)cc3o2)cc1 | 17.4
26 | Cc1ccc(CN2CCC(n3nccc3NC(=O)C3CCOC3)CC2)cc1 (centres unmarked) | -26.8
